Experimental data as given in the supplement of paper PMC7826260.
The other results are listed elsewhere or left out. Each Rep nickase domain was tested in vitro on the same pool of single strands for 1 h at 37 °C with 3 µM enzyme; only the middle of the 90-letter strands is printed. Uncut reads are compared with the no-enzyme pool on a log2 scale; the lower, the more was cut; hits are not called. Reads are scaled to the total; where an enzyme cuts many sequences, the uncut ones exceed 0.

Assays:
Assay in all cases: uncleaved DNA left, log2 of reads against the no-enzyme library (log2 ratio); higher = less cleavage (more negative = more Rep cleavage of the k-mer); sequences stand for … in CTCGTCCG…ACCGGAGA
[1] = test system: T1, Rep nickase domain of Muscovy duck circovirus
T1 sequence (Rep 1-111, printed without the tag): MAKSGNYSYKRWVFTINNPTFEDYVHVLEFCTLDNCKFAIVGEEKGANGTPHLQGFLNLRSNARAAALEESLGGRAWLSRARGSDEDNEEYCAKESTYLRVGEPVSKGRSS
Protocol: (§1)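 A pool of 90-nt single-stranded DNAs with seven random bases just before the constant AC of the nick site (name = the seven bases) was cut by 3 µM recombinant His6-SUMO-tagged Rep nickase domain (300 nM DNA, 50 mM HEPES pH 8.0, 50 mM NaCl, 1 mM MnCl2, 1 h, 37 °C, three replicates). Uncut DNA was amplified and sequenced.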

[2] = test system: T2, Rep nickase domain of banana bunchy top virus
T2 sequence (Rep 1-94, printed without the tag): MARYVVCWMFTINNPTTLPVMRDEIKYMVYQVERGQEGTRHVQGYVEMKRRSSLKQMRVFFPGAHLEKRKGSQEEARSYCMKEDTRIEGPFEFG
Protocol: as §1

[3] = test system: T3, Rep nickase domain of cabbage leaf curl virus
T3 sequence (Rep 1-116, printed without the tag): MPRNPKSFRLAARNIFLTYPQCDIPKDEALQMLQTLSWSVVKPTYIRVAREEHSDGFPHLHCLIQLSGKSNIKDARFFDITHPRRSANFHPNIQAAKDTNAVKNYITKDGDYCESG
Protocol: as §1

[4] = test system: T4, Rep nickase domain of chickpea chlorotic dwarf virus
T4 sequence (Rep 1-124, printed without the tag): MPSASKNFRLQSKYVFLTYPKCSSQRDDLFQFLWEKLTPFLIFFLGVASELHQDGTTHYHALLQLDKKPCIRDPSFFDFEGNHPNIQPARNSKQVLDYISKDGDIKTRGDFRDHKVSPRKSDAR
Protocol: as §1

[5] = test system: T5, Rep nickase domain of faba bean necrotic yellows virus
T5 sequence (Rep 1-98, printed without the tag): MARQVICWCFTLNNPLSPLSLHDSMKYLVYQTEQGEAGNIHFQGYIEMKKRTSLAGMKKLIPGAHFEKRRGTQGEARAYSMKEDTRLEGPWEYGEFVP
Protocol: as §1

[6] = test system: T6, Rep nickase domain of maize striate mosaic virus
T6 sequence (Rep 1-117, printed without the tag): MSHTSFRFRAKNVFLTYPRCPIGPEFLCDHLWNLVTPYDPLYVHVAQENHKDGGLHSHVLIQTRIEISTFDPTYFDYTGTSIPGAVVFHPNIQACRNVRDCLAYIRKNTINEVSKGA
Protocol: as §1

[7] = test system: T7, Rep nickase domain of porcine circovirus 2
T7 sequence (Rep 2-116, printed without the tag): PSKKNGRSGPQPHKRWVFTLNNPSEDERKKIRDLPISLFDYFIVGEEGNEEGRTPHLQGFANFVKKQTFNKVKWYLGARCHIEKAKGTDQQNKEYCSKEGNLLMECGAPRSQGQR
Protocol: as §1

[8] = test system: T8, Rep nickase domain of tomato golden mosaic virus
T8 sequence (Rep 1-124, printed without the tag): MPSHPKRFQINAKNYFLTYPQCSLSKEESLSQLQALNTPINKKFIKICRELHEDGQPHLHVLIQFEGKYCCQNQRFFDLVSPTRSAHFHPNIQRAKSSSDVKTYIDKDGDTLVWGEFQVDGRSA
Protocol: as §1

[9] = test system: T9, Rep nickase domain of tomato yellow leaf curl virus
T9 sequence (Rep 1-136, printed without the tag): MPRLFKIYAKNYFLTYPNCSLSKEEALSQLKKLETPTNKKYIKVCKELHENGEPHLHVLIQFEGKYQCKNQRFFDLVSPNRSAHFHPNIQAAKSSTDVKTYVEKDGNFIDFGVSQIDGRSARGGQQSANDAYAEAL
Protocol: as §1

[10] = test system: T10, Rep nickase domain of wheat dwarf virus
T10 sequence (Rep 1-137, printed without the tag): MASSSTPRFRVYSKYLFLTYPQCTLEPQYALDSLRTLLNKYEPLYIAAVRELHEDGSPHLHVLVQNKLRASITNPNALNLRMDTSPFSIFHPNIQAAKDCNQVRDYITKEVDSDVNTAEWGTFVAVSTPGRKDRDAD
Protocol: as §1

Sequence	uncleaved DNA left (log2) [1]	uncleaved DNA left (log2) [2]	uncleaved DNA left (log2) [3]	uncleaved DNA left (log2) [4]	uncleaved DNA left (log2) [5]	uncleaved DNA left (log2) [6]	uncleaved DNA left (log2) [7]	uncleaved DNA left (log2) [8]	uncleaved DNA left (log2) [9]	uncleaved DNA left (log2) [10]
ACGCTTT	0.126	0.0581	-0.252	-2.33	0.177	-0.649	-0.188	0.0647	-0.0941	-0.0248
CACCGGT	0.082	-0.00401	0.203	0.234	0.00141	0.317	0.161	0.0376	-0.12	0.0948
CCAACTA	-0.0911	0.152	-0.118	-2.21	0.0748	-0.6	0.0899	0.00521	-0.00165	0.0941
GCCCCGC	-0.0437	-0.0266	-0.127	0.0185	0.0238	-0.422	-0.00529	-0.00712	0.0295	-0.0189
GAACGAA	0.114	0.174	0.444	0.513	0.057	0.797	0.281	0.314	0.188	0.168
TGGAGAA	-0.0655	-0.101	0.454	0.999	-0.126	1.03	0.0746	-0.0336	-0.0704	0.0458
GCGACGC	0.0167	-0.00368	0.112	0.731	-0.0814	1.26	0.038	-0.0361	-0.114	-0.0239
TTAGGGC	0.244	0.111	0.518	0.697	0.139	0.635	0.0131	0.203	0.0683	0.176
AACCGTC	0.0122	-0.0615	-0.0521	-0.607	-0.0372	-0.978	-0.196	-0.13	-0.0803	-0.197
GAGTATA	0.0104	-0.0537	0.139	-0.82	-0.291	1.14	-2.55	-0.0109	0.0846	0.0587
CTAGTTA	-0.123	0.109	-0.0541	-1.29	-0.0526	-0.481	-0.132	-0.0073	-0.0626	-0.00843
GTTCCCC	-0.135	0.0869	0.313	0.94	-0.0828	1.51	-1.6	-0.0538	0.0653	0.119
GGGAGGC	0.0803	0.0709	0.863	1.93	0.0414	2.23	0.228	-0.00706	-0.0865	0.0766
AAAAGGT	0.0931	-0.0132	0.144	0.909	-0.049	1.4	0.132	0.0807	-0.184	-0.0255
ATTCCCA	-0.834	-0.0943	0.0916	-1.01	0.0616	-0.326	-2.85	-0.041	0.135	0.123
CACCCTA	-0.125	-0.212	-0.336	-2.6	-0.168	-0.659	-0.902	-0.31	-0.205	-0.21
TGCAGAA	0.0453	-0.000809	0.0493	0.0368	0.155	-0.527	0.0471	0.103	0.000765	0.0763
TAAAGGT	0.0821	0.0177	-2.43	-2.19	0.073	1.31	0.0402	-0.139	-0.0986	-0.59
CCGCTAA	-0.109	-0.0714	-0.304	-0.415	-0.0872	-0.647	-0.078	-0.099	-0.283	0.00674
TCCTGTC	0.112	-0.000111	0.139	-0.223	0.0398	-0.744	0.184	0.184	0.0169	-0.00822
GCAGGAC	0.0324	0.0315	0.614	1.69	0.0146	1.77	0.16	0.152	0.0309	0.177
GAACCTT	0.0225	0.0076	0.252	-0.951	-0.0707	1.47	-0.254	-0.137	0.00802	0.0336
AGTTATC	0.0152	-0.135	0.27	0.792	-0.133	0.194	-0.113	-0.0586	0.0574	0.101
CCGGCAG	0.0119	-0.0131	-0.352	-0.376	0.00473	-0.695	0.0886	0.18	-0.0409	-0.0921
GGACTGC	-0.0427	0.0292	0.663	1.63	-0.049	2.05	0.183	-0.0556	0.071	0.109
GAAGCTT	-0.116	-0.0493	-0.315	-1.43	-0.133	1.09	-0.474	-0.0905	-0.153	-0.187
TCCATTG	0.0874	-0.0107	-0.549	-0.533	0.0699	-1.27	0.199	0.0188	0.159	0.104
CTGTGGG	0.0959	-0.0751	-0.592	-0.569	0.0399	-1.03	0.137	-0.0666	-0.0599	-0.0429
ATGGGGT	0.0637	-0.0998	0.201	1.31	-0.0147	1.75	0.147	0.00794	-0.202	-0.13
ACGTCAA	-0.0473	0.0453	-0.0406	-0.0864	0.0711	-0.523	-0.0912	0.00476	-0.157	-0.0262
